The whole screen tested about 310,000 compounds, of which about 14,000 (4.5%) showed an effect of 50% or more. The effect is printed as a negative number. This is one part of the list.
What follows are molecules tested against human ether-à-go-go-related gene (hERG) potassium channel (human, UniProt Q12809) (assay: primary screen, population patch clamp on CHO cells stably expressing hERG).
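Also: peak tail current of the secondary pulse compared with the same well before compound.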

human ether-à-go-go-related gene (hERG) potassium channel, sequence (Q12809 whole entry, looked up): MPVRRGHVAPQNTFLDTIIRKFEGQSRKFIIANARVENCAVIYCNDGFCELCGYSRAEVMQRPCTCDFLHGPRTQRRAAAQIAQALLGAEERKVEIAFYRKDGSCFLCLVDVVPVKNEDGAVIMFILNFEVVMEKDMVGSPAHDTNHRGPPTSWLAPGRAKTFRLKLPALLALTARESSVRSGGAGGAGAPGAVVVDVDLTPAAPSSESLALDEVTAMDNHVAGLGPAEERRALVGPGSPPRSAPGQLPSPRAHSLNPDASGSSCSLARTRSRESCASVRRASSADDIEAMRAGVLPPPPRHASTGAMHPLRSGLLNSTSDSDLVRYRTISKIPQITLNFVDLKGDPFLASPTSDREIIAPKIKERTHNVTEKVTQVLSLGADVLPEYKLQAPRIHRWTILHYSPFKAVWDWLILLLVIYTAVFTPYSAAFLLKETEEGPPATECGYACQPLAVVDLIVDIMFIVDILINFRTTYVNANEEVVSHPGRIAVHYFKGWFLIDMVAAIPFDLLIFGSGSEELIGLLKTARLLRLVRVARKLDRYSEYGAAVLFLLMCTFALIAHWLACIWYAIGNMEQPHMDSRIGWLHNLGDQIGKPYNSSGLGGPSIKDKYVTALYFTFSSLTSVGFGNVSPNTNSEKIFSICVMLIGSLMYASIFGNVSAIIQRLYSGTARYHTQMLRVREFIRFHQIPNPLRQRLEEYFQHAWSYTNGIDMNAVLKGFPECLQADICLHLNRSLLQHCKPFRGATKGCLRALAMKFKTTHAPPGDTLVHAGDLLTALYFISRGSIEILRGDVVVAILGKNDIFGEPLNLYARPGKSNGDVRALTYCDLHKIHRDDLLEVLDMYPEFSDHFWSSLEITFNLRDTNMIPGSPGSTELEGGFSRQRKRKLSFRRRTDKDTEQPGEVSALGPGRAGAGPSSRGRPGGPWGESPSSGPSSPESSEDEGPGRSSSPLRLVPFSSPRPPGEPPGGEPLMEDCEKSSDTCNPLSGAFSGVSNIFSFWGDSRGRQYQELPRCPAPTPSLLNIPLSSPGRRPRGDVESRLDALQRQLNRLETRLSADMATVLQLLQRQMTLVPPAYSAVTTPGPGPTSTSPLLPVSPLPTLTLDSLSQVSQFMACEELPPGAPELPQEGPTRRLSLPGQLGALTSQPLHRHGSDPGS

Row | Structure (SMILES) | hERG current change (%, negative = inhibition) at 10uM [%]
1 | Cc1ccc(NCc2ccccc2)cc1 | 11.9
2 | CCc1nc2c(c(=O)c3ccccc3n2C)c(=O)n1CCc1ccc(OC)cc1 | -74.9
3 | CCc1c(C)nc2ncnn2c1N1CCC(C(=O)Nc2cccc(C(C)=O)c2)CC1 | -22.6
4 | COC(=O)C1CCN(S(=O)(=O)c2cn(C)c(=O)n(C)c2=O)CC1 | 25.4
5 | Cc1cc2cc(CN(Cc3cccs3)C(=S)NCc3ccco3)c(=O)[nH]c2cc1C | -13.9
6 | CCN1CCN(C(c2cccs2)C(C)NC(=O)Oc2ccccc2)CC1 (centres unmarked) | -38.5
7 | O=C(Cn1cc2c(n1)CCCC2)N1CCOCC1 | 2.86
8 | O=C(COc1coc(CN2CCN(c3ccccc3F)CC2)cc1=O)N1CCc2ccccc21 | -33.5
9 | COc1ccc(-c2[nH]nc3c2C2(C(=O)N(CC(=O)O)c4ccccc42)C(C#N)=C(N)O3)cc1OC (centres unmarked) | 8.77
10 | CC(=O)c1cccc(NC(=O)CC2Oc3ccc(C)cc3NC2=O)c1 (centres unmarked) | -0.419
11 | O=C(CCN1C(=O)c2ccccc2C1=O)Nc1ccccc1C(=O)N1CCOCC1 | -3.17
12 | COc1cc(OC)c(C(=O)NCCCn2ccnc2)cc1OC.Cl | 13
13 | O=C(COC(=O)Cc1ccsc1)NC1CCCCCC1 | -12.4
14 | CC(C)=CC(=O)Nc1ccc(Cl)cc1 | 11.8
15 | CC(Sc1nc(-c2ccccc2)cc(C(F)(F)F)n1)C(=O)Nc1ccc2c(c1)OCO2 (centres unmarked) | 10.3
16 | COc1ccc(NC(=O)C2=NN(C3CCS(=O)(=O)C3)C(=O)CC2)cn1 (centres unmarked) | 25.4
17 | Cc1ccc(C(=O)NCC(=O)OC(C)C(=O)NC2CCCc3ccccc32)cc1 (centres unmarked) | -1.3
18 | CC(C(=O)O)N1C(=O)C2C3c4ccccc4C(c4ccccc43)[C@@H]2C1=O (some centres unmarked) | 24
19 | CCCC12CN3CC(C)(CN(C1)C3c1ccc([N+](=O)[O-])o1)C2=O (centres unmarked) | -19.6
20 | O=C(c1ccccc1)N1N=C(c2ccccc2O)CC1c1ccc(Br)cc1 (centres unmarked) | 24
21 | O=C(O)c1c2c(nc3ccccc13)-c1ccccc1CC2 | 19.2
22 | CCOc1ccccc1C(=O)Nc1ccc2nc(N3CCN(c4ncccn4)CC3)cc(C)c2c1 | -8.08

Row | Structure (SMILES) | hERG current change (%, negative = inhibition) at 10uM [%]
23 | O=C(COc1ccc(Cl)cc1)NCc1nnc(SCC(=O)N2CCCc3ccccc32)o1 | -13.1
24 | O=C(CSCc1ccc(Br)cc1)N1CCCC1 | -5.18
25 | CCCc1cc(=O)[nH]c(SCc2ccccc2Cl)n1 | -12.3
26 | COCc1cc(=O)n2[nH]c(N)nc2n1 | 2.03
27 | CCS(=O)(=O)N1CCC(C(=O)N2CCN(c3ccccc3)CC2)CC1 | -6.54
28 | CCOc1ccc(NC(=O)c2ccccc2O)cc1 | -6.55
29 | O=C(c1ccccc1F)c1cn(CC(=O)N2CCCC2)c2ccccc12 | -3.87
30 | COc1ccc(N(CC(=O)NCc2ccccc2)C(=O)Cn2nnc(-c3ccccc3F)n2)cc1OC | -8.85
31 | CCSc1nnc(NC(=O)Cc2ccc(OC)c(S(=O)(=O)N3CCOCC3)c2)s1 | 11.1
32 | COc1cc(/C=C/C(=O)OCC(=O)Nc2ccc(C)c(S(=O)(=O)N3CCCCC3)c2)ccc1O | -0.897
33 | O=C(NNC(=S)NC(=O)c1ccccc1)c1ccc(O)cc1 | 24.7
34 | O=[N+]([O-])c1cc(N=Nc2ccc3ccccc3c2)ccc1O | 12.8
35 | CCOc1ccc(N2C(=O)CC(NCCc3c[nH]c4ccccc34)C2=O)cc1 (centres unmarked) | 1.45
36 | Cn1c(=O)c(C(=O)CN2CCN(S(=O)(=O)c3ccccc3)CC2)c(N)n(Cc2ccccc2)c1=O | -18.7
37 | O=C(O/N=C(\c1ccccc1)c1ccncc1)c1ccccc1Cl | 42.1
38 | CC(C)(C)NS(=O)(=O)c1ccc(CCC(=O)Nc2ccc3c(c2)OCCO3)cc1 | 21.8
39 | CC1CC(C)(C)CC2(C1)NC(=O)N(CC(=O)Nc1ccc3[nH]c(=O)[nH]c3c1)C2=O (centres unmarked) | -0.612
40 | COc1ccc(N2CC(C(=O)Nc3ccc([N+](=O)[O-])cc3Br)CC2=O)cc1 (centres unmarked) | -69
41 | CN(C)C(=S)SCC(=O)NCc1ccc(F)cc1 | 13.2
42 | Cc1cc(/C=C2\C(=N)N3N=C(CC(=O)N4CCOCC4)SC3=NC2=O)c(C)n1-c1ccccc1 | 10.3
43 | CN(C(=O)COc1ccc(Cl)cc1Cl)C1(C)CCS(=O)(=O)C1 (centres unmarked) | -12.5
44 | CCCN(CCC)c1nc2ccccc2nc1C(C#N)C(=O)OCCOC (centres unmarked) | -16.6

Row | Structure (SMILES) | hERG current change (%, negative = inhibition) at 10uM [%]
45 | Cc1cc(NC(=O)CCc2ccccc2)c([N+](=O)[O-])cc1C | -12.4
46 | O=C(C[n+]1ccccc1)Nc1ccccc1Br.[Cl-] | 28.1
47 | Cc1cccc(NC(c2ccc(C)s2)c2ccc3ccc(C)nc3c2O)n1 (centres unmarked) | 11.6
48 | Cc1ccc([N+](=O)[O-])cc1NCC(=O)NN | -1.25
49 | COc1ccc(C2(c3ccc(OC)cc3)NC(=O)N(CC(=O)NCC(F)(F)F)C2=O)cc1 | 0.0892
50 | COCc1cc(C)nc(OCC(=O)N/N=C/c2ccc(-c3cccc([N+](=O)[O-])c3)o2)c1C#N | -0.736
51 | CN1CCCC(OC(=O)c2ccccc2Br)C1.Cl (centres unmarked) | 3.51
52 | COc1ccc(C(=O)CSc2nc3c(c(=O)n(C)c(=O)n3C)n2C)cc1 | 8.5
53 | CCOC(=O)Cc1cc(=O)n2[nH]c(C)c(-c3ccc(Cl)cc3)c2n1 | 3.21
54 | Nc1nc2c3ccccc3nc(Cc3ccccc3)n2n1 | 9.19
55 | C/C(=N\NC(=O)CSc1ncccn1)c1ccc2c(c1)OCCO2 | -16.3
56 | COC(=O)c1cccc(C(=O)N2CCCC(Nc3ccc4c(c3)OCCO4)C2)c1 (centres unmarked) | 4.75
57 | S=C(Nc1ccc(Cl)cc1Cl)NC1CCCCC1 | 4.77
58 | S=c1nc(-c2ccccc2)n(CCN2CCOCC2)c2c1CCCC2 | -13.4
59 | C=CCc1ccccc1Oc1cc(F)nc(N)n1 | 14.2
60 | CCC(C)NC(=O)c1cc(Sc2nnc(C)s2)nc2ccccc12 (centres unmarked) | 0.69
61 | COc1cccc(/C=N/NC(=O)c2ccc(-c3ccccc3)cc2)c1O | -3.13
62 | O=[N+]([O-])c1cnccc1Nc1ccc(F)cc1 | -15
63 | CC(C)Cc1nc(Nc2ccc(S(=O)(=O)N3CCCC3)cc2)c2nnn(Cc3ccccc3)c2n1 | -1.18
64 | CCN(CC)S(=O)(=O)c1ccc(-c2nnc(SCc3nnc(-c4ccc(C)cc4)o3)o2)cc1 | 8.8
65 | COc1cc2ccccc2c2c1CCCC2=O | -1.09
66 | C=CCN=C(C)C1=C(O)CCC1=O | 16.5

Row | Structure (SMILES) | hERG current change (%, negative = inhibition) at 10uM [%]
67 | Cc1csc2nc(CNS(=O)(=O)c3ccc4c(c3)CCCC4)cn12 | 3.66
68 | CC(C)NC(=O)C(c1ccc(F)cc1)N(C(=O)CCC(=O)Nc1ccccn1)C1CCCC1 (centres unmarked) | 10.7
69 | COc1ccc(N(Cc2cc3ccc(C)cc3[nH]c2=O)C(=O)c2ccco2)cc1 | 14.2
70 | CN(C)C(CNC(=O)c1ccc(S(=O)(=O)NCc2ccco2)cc1)c1ccccc1 (centres unmarked) | 19
71 | CCn1c(SCc2ccc(C)cc2)nnc1C1CCN(S(=O)(=O)c2ccc(OC)cc2)CC1 | -64.5
72 | CC1CCCCC12NC(=O)N(CC(=O)Nc1ccc3c(c1)OCCCO3)C2=O (centres unmarked) | -9.5
73 | O=C(/C=C/c1c(F)cccc1Cl)N1CCc2ccccc2C1 | 4.99
74 | Cc1nn(-c2ccccc2)c(C)c1NC(=O)COC(=O)Cc1cccc(C(F)(F)F)c1 | -6.53
75 | Cc1[nH]n(C2=NCCS2)c(=O)c1N=Nc1ccccc1 | -27.8
76 | COc1ccc([N+](=O)[O-])cc1NC(=O)c1ccc(CN(c2ccc(C)c(C)c2)S(C)(=O)=O)cc1 | 10.7
77 | Cc1nn(Cc2ccccc2)c(C)c1NC(=O)CSc1nnc(-c2cc(Cl)ccc2O)n1C | -12.4
78 | CC(=O)Nc1ccc(NC(=O)C2CC(=O)Nc3nc4ccccc4n32)cc1 (centres unmarked) | 24.6
79 | C=CCn1c(COc2ccc(Cl)cc2)nnc1SCC(=O)N/N=C/c1ccccc1 | -7.71
80 | Cc1cc(C)cc(NC(=O)C(=O)NCCc2c[nH]c3ccccc23)c1 | 14.9
81 | Cc1cc(OCC(=O)Nc2ccc(CN3CCOCC3)cc2)c2c(C)c(C)c(=O)oc2c1 | 16
82 | COc1ccc(Cl)cc1NS(=O)(=O)c1cccc(C(=O)N2CC(C)OC(C)C2)c1 (centres unmarked) | -16.3
83 | COc1cccc(NC(=O)CN(C)C(=O)CCCc2nc3ccccc3s2)c1 | -24.1
84 | Cc1ccc(NC(=O)c2cc(-c3ccccc3)nn2-c2ccccc2)cc1 | 14.6
85 | Cc1cc2ccccc2n1CCNC(=O)c1ccc(S(=O)(=O)N2CCCCC2)cc1 | 9.14
86 | CC(C)(C)c1nc2ccccc2c(=O)n1N1C(=O)c2ccccc2C1=O | 8.07
